{"source": "paper PMC6451091", "note": "This is one part of the list. Measured with an extract: partners may take part in the binding."}
{"system": "PU.1 (endogenous, THP-1 nuclear extract) + IRF8 (endogenous, THP-1 nuclear extract)", "test": "nuclear extract protein-binding microarray (nextPBM)", "details": "20 mM HEPES pH 7.9, 100 mM NaCl, 1 mM DTT, 0.2 mg/mL BSA, 0.02% Triton X-100, 2% milk, 0.4 mg/mL salmon testes DNA; 1 h; temperature not stated; high values mean tight binding; double strand, one strand shown; sequences stand for … in GCCTAGCAC…GTGCTAGGTCTTGATTCGCTTGACGCTGCTG", "units": {"binding signal": "z-score"}}
{"sequence": "AGCTGGGCATCCTCCATGAT", "binding signal": 0.566}
{"sequence": "CAACAGCGTGCAGTCTTTTT", "binding signal": -0.432}
{"sequence": "GAGGTTGCATCTTTTAAGAG", "binding signal": 0.253}
{"sequence": "GATCCCCAAACGGAAAGAAA", "binding signal": 0.211}
{"sequence": "GAGTGAACTCACGTCCACAC", "binding signal": 0.959}
{"sequence": "GCAATACTTTACACTCAACT", "binding signal": -1.62}
{"sequence": "TTTTATTTTACAATTAAAAC", "binding signal": -0.175}
